{
  "source": "the supplement of paper PMC8728848",
  "experiment_in_all_cases": "glycan array binding signal (z-score within array); higher = stronger binding",
  "settings_in_all_cases": "glycan notation: IUPAC condensed, linker removed",
  "key": {"[1]": {"target": "Neu5Ac(a2-6)Gal(b1-4)GlcNAc(b1-2)Man(a1-3)[GlcNAc(b1-2)Man(b1-4)GlcNAc(b1-2)Man(a1-6)]Man(b1-4)GlcNAc(b1-4)GlcNAc", "summary_of_the_method": "(§1)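 Columns mapping to the same glycan were averaged after glycan names were converted to IUPAC-condensed notation. The data come from 3228 arrays in the Consortium for Functional Glycomics database, limited to those with an available protein sequence. Binding is reported as a within-array Z-score averaged across arrays of one protein sequence and across linkers.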"}, "[2]": {"target": "Neu5Ac(a2-6)Gal(b1-4)GlcNAc(b1-2)Man(a1-3)[Man(a1-6)]Man(b1-4)GlcNAc(b1-4)GlcNAc", "summary_of_the_method": "as §1"}, "[3]": {"target": "Neu5Ac(a2-6)Gal(b1-4)GlcNAc(b1-2)Man(a1-3)[Neu5Ac(a2-6)Gal(b1-4)GlcNAc(b1-2)Man(a1-6)]Man(b1-4)GlcNAc(b1-4)GlcNAc", "summary_of_the_method": "as §1"}, "[4]": {"target": "Neu5Ac(a2-6)Gal(b1-4)GlcNAc(b1-2)Man(a1-6)Man(b1-4)GlcNAc(b1-4)GlcNAc", "summary_of_the_method": "as §1"}, "[5]": {"target": "Neu5Ac(a2-6)Gal(b1-4)GlcNAc(b1-2)Man(a1-6)[Gal(b1-4)GlcNAc(b1-2)Man(a1-3)]Man(b1-4)GlcNAc(b1-4)GlcNAc", "summary_of_the_method": "as §1"}, "[6]": {"target": "Neu5Ac(a2-6)Gal(b1-4)GlcNAc(b1-2)Man(a1-6)[GlcNAc(b1-2)Man(a1-3)]Man(b1-4)GlcNAc(b1-4)GlcNAc", "summary_of_the_method": "as §1"}, "[7]": {"target": "Neu5Ac(a2-6)Gal(b1-4)GlcNAc(b1-2)Man(a1-6)[Man(a1-3)]Man(b1-4)GlcNAc(b1-4)GlcNAc", "summary_of_the_method": "as §1"}, "[8]": {"target": "Neu5Ac(a2-6)Gal(b1-4)GlcNAc(b1-3)Gal(b1-3)GlcNAc", "summary_of_the_method": "as §1"}, "[9]": {"target": "Neu5Ac(a2-6)Gal(b1-4)GlcNAc(b1-3)Gal(b1-4)GlcNAc", "summary_of_the_method": "as §1"}, "[10]": {"target": "Neu5Ac(a2-6)Gal(b1-4)GlcNAc(b1-3)Gal(b1-4)GlcNAc(b1-3)Gal(b1-4)GlcNAc", "summary_of_the_method": "as §1"}, "[11]": {"target": "Neu5Ac(a2-6)Gal(b1-4)GlcNAc(b1-3)Gal(b1-4)[Fuc(a1-3)]GlcNAc(b1-3)Gal(b1-4)[Fuc(a1-3)]GlcNAc", "summary_of_the_method": "as §1"}, "[12]": {"target": "Neu5Ac(a2-6)Gal(b1-4)GlcNAc(b1-3)GalNAc", "summary_of_the_method": "as §1"}, "[13]": {"target": "Neu5Ac(a2-6)Gal(b1-4)GlcNAc6S", "summary_of_the_method": "as §1"}, "[14]": {"target": "Neu5Ac(a2-6)GalNAc", "summary_of_the_method": "as §1"}, "[15]": {"target": "Neu5Ac(a2-6)GalNAc(b1-4)GlcNAc", "summary_of_the_method": "as §1"}, "[16]": {"target": "Neu5Ac(a2-6)GlcNAc(b1-4)GlcNAc", "summary_of_the_method": "as §1"}, "[17]": {"target": "Neu5Ac(a2-6)GlcNAc(b1-4)GlcNAc(b1-4)GlcNAc", "summary_of_the_method": "as §1"}, "[18]": {"target": "Neu5Ac(a2-8)Neu5Ac", "summary_of_the_method": "as §1"}, "[19]": {"target": "Neu5Ac(a2-8)Neu5Ac(a2-3)Gal(b1-3)GalNAc(b1-4)[Neu5Ac(a2-8)Neu5Ac(a2-3)]Gal(b1-4)Glc", "summary_of_the_method": "as §1"}, "[20]": {"target": "Neu5Ac(a2-8)Neu5Ac(a2-3)Gal(b1-4)Glc", "summary_of_the_method": "as §1"}, "[21]": {"target": "Neu5Ac(a2-8)Neu5Ac(a2-3)[Gal(b1-3)GalNAc(b1-4)]Gal(b1-4)Glc", "summary_of_the_method": "as §1"}, "[22]": {"target": "Neu5Ac(a2-8)Neu5Ac(a2-3)[GalNAc(b1-4)]Gal(b1-4)Glc", "summary_of_the_method": "as §1"}, "[23]": {"target": "Neu5Ac(a2-8)Neu5Ac(a2-8)Neu5Ac", "summary_of_the_method": "as §1"}, "[24]": {"target": "Neu5Ac(a2-8)Neu5Ac(a2-8)Neu5Ac(a2-3)Gal(b1-4)Glc", "summary_of_the_method": "as §1"}, "[25]": {"target": "Neu5Ac(a2-8)Neu5Ac(a2-8)Neu5Ac(a2-3)[GalNAc(b1-4)]Gal(b1-4)Glc", "summary_of_the_method": "as §1"}, "[26]": {"target": "Neu5Ac(a2-8)Neu5Ac(a2-8)Neu5Ac(a2-8)Neu5Ac(a2-3)[GalNAc(b1-4)]Gal(b1-4)Glc", "summary_of_the_method": "as §1"}, "[27]": {"target": "Neu5Ac(b1-6)GalNAc", "summary_of_the_method": "as §1"}, "[28]": {"target": "Neu5Ac(b2-6)Gal(b1-4)GlcNAc", "summary_of_the_method": "as §1"}, "[29]": {"target": "Neu5Ac(b2-6)GalNAc", "summary_of_the_method": "as §1"}, "[30]": {"target": "Neu5Ac9Ac(a2-3)Gal(b1-3)GlcNAc", "summary_of_the_method": "as §1"}, "[31]": {"target": "Neu5Ac9Ac(a2-3)Gal(b1-4)GlcNAc", "summary_of_the_method": "as §1"}, "[32]": {"target": "Neu5Ac9Ac(a2-6)Gal(b1-4)GlcNAc", "summary_of_the_method": "as §1"}, "[33]": {"target": "Neu5Gc(a2-3)Gal(b1-3)GlcNAc", "summary_of_the_method": "as §1"}, "[34]": {"target": "Neu5Gc(a2-3)Gal(b1-3)[Fuc(a1-4)]GlcNAc", "summary_of_the_method": "as §1"}, "[35]": {"target": "Neu5Gc(a2-3)Gal(b1-4)Glc", "summary_of_the_method": "as §1"}, "[36]": {"target": "Neu5Gc(a2-3)Gal(b1-4)GlcNAc", "summary_of_the_method": "as §1"}, "[37]": {"target": "Neu5Gc(a2-3)Gal(b1-4)[Fuc(a1-3)]GlcNAc", "summary_of_the_method": "as §1"}, "[38]": {"target": "Neu5Gc(a2-6)Gal(b1-4)GlcNAc", "summary_of_the_method": "as §1"}, "[39]": {"target": "Neu5Gc(a2-6)GalNAc", "summary_of_the_method": "as §1"}, "[40]": {"target": "Neu5Gc(b2-6)Gal(b1-4)GlcNAc", "summary_of_the_method": "as §1"}},
  "note": "The other results are listed elsewhere or left out.",
  "data": [
    {"binder": "ConA (Canavalia ensiformis), P02866 (protein) MAISKKSSLFLPIFTFITMFLMVVNKVSSSTHETNALHFMFNQFSKDQKDLILQGDATTGTDGNLELTRVSSNGSPQGSSVGRALFYAPVHIWESSAVVASFEATFTFLIKSPDSHPADGIAFFISNIDSSIPSGSTGRLLGLFPDANVIRNSTTIDFNAAYNADTIVAVELDTYPNTDIGDPSYPHIGIDIKSVRSKKTAKWNMQNGKVGTAHIIYNSVDKRLSAVVSYPNADSATVSYDVDLDNVLPEWVRVGLSASTGLYKETNTILSWSFTSKLKSNEIPDIATVV", "values": [
      {"measurement": "glycan array binding signal (z-score)", "setting": "[1]", "result": 0.146},
      {"measurement": "glycan array binding signal (z-score)", "setting": "[2]", "result": 0.818},
      {"measurement": "glycan array binding signal (z-score)", "setting": "[3]", "result": 0.969},
      {"measurement": "glycan array binding signal (z-score)", "setting": "[4]", "result": -0.259},
      {"measurement": "glycan array binding signal (z-score)", "setting": "[5]", "result": -0.212},
      {"measurement": "glycan array binding signal (z-score)", "setting": "[6]", "result": -0.11},
      {"measurement": "glycan array binding signal (z-score)", "setting": "[7]", "result": 0.287},
      {"measurement": "glycan array binding signal (z-score)", "setting": "[8]", "result": -0.218},
      {"measurement": "glycan array binding signal (z-score)", "setting": "[9]", "result": -0.285},
      {"measurement": "glycan array binding signal (z-score)", "setting": "[10]", "result": -0.222},
      {"measurement": "glycan array binding signal (z-score)", "setting": "[11]", "result": 0.022},
      {"measurement": "glycan array binding signal (z-score)", "setting": "[12]", "result": -0.15},
      {"measurement": "glycan array binding signal (z-score)", "setting": "[13]", "result": -0.278},
      {"measurement": "glycan array binding signal (z-score)", "setting": "[14]", "result": -0.275},
      {"measurement": "glycan array binding signal (z-score)", "setting": "[15]", "result": -0.213},
      {"measurement": "glycan array binding signal (z-score)", "setting": "[16]", "result": -0.226},
      {"measurement": "glycan array binding signal (z-score)", "setting": "[17]", "result": -0.184},
      {"measurement": "glycan array binding signal (z-score)", "setting": "[18]", "result": -0.272},
      {"measurement": "glycan array binding signal (z-score)", "setting": "[19]", "result": -0.188},
      {"measurement": "glycan array binding signal (z-score)", "setting": "[20]", "result": -0.296},
      {"measurement": "glycan array binding signal (z-score)", "setting": "[21]", "result": -0.226},
      {"measurement": "glycan array binding signal (z-score)", "setting": "[22]", "result": -0.282},
      {"measurement": "glycan array binding signal (z-score)", "setting": "[23]", "result": -0.26},
      {"measurement": "glycan array binding signal (z-score)", "setting": "[24]", "result": -0.309},
      {"measurement": "glycan array binding signal (z-score)", "setting": "[25]", "result": 0.018},
      {"measurement": "glycan array binding signal (z-score)", "setting": "[26]", "result": -0.223},
      {"measurement": "glycan array binding signal (z-score)", "setting": "[27]", "result": -0.292},
      {"measurement": "glycan array binding signal (z-score)", "setting": "[28]", "result": -0.328},
      {"measurement": "glycan array binding signal (z-score)", "setting": "[29]", "result": -0.258},
      {"measurement": "glycan array binding signal (z-score)", "setting": "[30]", "result": -0.303},
      {"measurement": "glycan array binding signal (z-score)", "setting": "[31]", "result": -0.009},
      {"measurement": "glycan array binding signal (z-score)", "setting": "[32]", "result": -0.243},
      {"measurement": "glycan array binding signal (z-score)", "setting": "[33]", "result": -0.266},
      {"measurement": "glycan array binding signal (z-score)", "setting": "[34]", "result": -0.226},
      {"measurement": "glycan array binding signal (z-score)", "setting": "[35]", "result": -0.227},
      {"measurement": "glycan array binding signal (z-score)", "setting": "[36]", "result": -0.258},
      {"measurement": "glycan array binding signal (z-score)", "setting": "[37]", "result": -0.102},
      {"measurement": "glycan array binding signal (z-score)", "setting": "[38]", "result": -0.228},
      {"measurement": "glycan array binding signal (z-score)", "setting": "[39]", "result": -0.28},
      {"measurement": "glycan array binding signal (z-score)", "setting": "[40]", "result": -0.244}
    ]}
  ]
}
